Results: patent publication US20130183237A1 (priority 2007, published 2013)

Legend:
[1] = biological target: recombinant α-thrombin (Homo sapiens, UniProt P00734); conditions: for loss of inhibitory activity after 60 min of incubation with thrombin: 24° C., 30-fold excess of inhibitor (100 nM, thrombin […])
[2] = test system: plasmin, TPA, urokinase, APC, FXIIa, FXIa, FXa, FIXa, FVIIa, kallikrein, chymotrypsin and trypsin
[3] = biological target: thrombin (Homo sapiens, UniProt P00734)
[4] = biological target: human plasma derived thrombin (Homo sapiens, UniProt P00734); assay: biochemical; conditions: IC50 (nM)

Row | Compound | pre-incubation after which steady state equilibrium inhibition was achieved [1] | loss of inhibitory activity after 60 min of incubation with thrombin [1] | inhibition of serine proteases other than thrombin ([2]; 1 μM of s-variegin) | concentration for similar ~30% inhibition of thrombin lower than for the most susceptible other proteases ([2]; ~3.3 nM against thrombin vs 100 μM) | cleavage by thrombin ([3]; 37° C., 180 min incubation) | s-variegin cleaved by thrombin ([3]; 60 min of incubation, 24° C., 30-fold excess of s-variegin (150 μM, thrombin 5 μM)) | IC50 ([4]; pre-incubation time 30 min) | IC50 ([4]; pre-incubation time 120 min (1 mg/ml BSA)) | IC50 ([4]; pre-incubation time […])
1 | CC[C@H](C)[C@H](NC(=O)[C@H](C)NC(=O)[C@H](CCC(=O)O)NC(=O)[C@H](Cc1ccccc1)NC(=O)[C@H](CC(=O)O)NC(=O)[C@H](Cc1ccccc1)NC(=O)[C@@H]1CCCN1C(=O)[C@@H]1CCCN1C(=O)[C@H](C)NC(=O)[C@@H](NC(=O)[C@H](CCCCN)NC(=O)[C@H](Cc1c[nH]cn1)NC(=O)[C@H](CCSC)NC(=O)[C@H](CCCCN)NC(=O)[C@@H]1CCCN1C(=O)[C@@H](N)CCC(=O)O)[C@@H](C)O)C(=O)N1CCC[C@H]1C(=O)N[C@@H](CCC(=O)O)C(=O)N[C@@H](CCC(=O)O)C(=O)N[C@@H](Cc1ccc(O)cc1)C(=O)N[C@@H](CC(C)C)C(=O)N[C@@H](CC(=O)O)C(=O)N[C@@H](CC(=O)O)C(=O)N[C@@H](CCC(=O)O)C(=O)N[C@@H](CO)C(=O)O [EP25] | ~10 min | no loss of inhibitory activity | – | – | – | – | – | – | –
2 | CC[C@H](C)[C@H](NC(=O)[C@H](C)NC(=O)[C@H](CCC(=O)O)NC(=O)[C@H](Cc1ccccc1)NC(=O)[C@H](CC(=O)O)NC(=O)[C@H](Cc1ccccc1)NC(=O)[C@@H]1CCCN1C(=O)[C@@H]1CCCN1C(=O)[C@H](C)NC(=O)[C@@H](NC(=O)[C@H](CCCCN)NC(=O)[C@H](Cc1c[nH]cn1)NC(=O)[C@H](CCSC)NC(=O)[C@H](CCCCN)NC(=O)[C@@H]1CCCN1C(=O)[C@H](CCC(=O)O)NC(=O)[C@H](C)NC(=O)[C@@H](NC(=O)[C@H](CC(=O)O)NC(=O)CNC(=O)[C@H](CCC(N)=O)NC(=O)[C@H](CC(=O)O)NC(=O)[C@@H](N)CO)C(C)C)[C@@H](C)O)C(=O)N1CCC[C@H]1C(=O)N[C@@H](CCC(=O)O)C(=O)N[C@@H](CCC(=O)O)C(=O)N[C@@H](Cc1ccc(O)cc1)C(=O)N[C@@H](CC(C)C)C(=O)N[C@@H](CC(=O)O)C(=O)N[C@@H](CC(=O)O)C(=O)N[C@@H](CCC(=O)O)C(=O)N[C@@H](CO)C(=O)O [s-variegin] | – | no loss of inhibitory activity | ≤ 5% | at least 4 orders of magnitude | almost complete | ~30% | – | – | –
3 | CC[C@H](C)[C@H](NC(=O)[C@H](C)NC(=O)[C@H](CCC(=O)O)NC(=O)[C@H](Cc1ccccc1)NC(=O)[C@H](CC(=O)O)NC(=O)[C@H](Cc1ccccc1)NC(=O)[C@@H]1CCCN1C(=O)[C@@H]1CCCN1C(=O)[C@H](C)NC(=O)[C@@H](NC(=O)[C@H](CCCCN)NC(=O)[C@H](Cc1c[nH]cn1)NC(=O)[C@@H](N)CCSC)[C@@H](C)O)C(=O)N1CCC[C@H]1C(=O)N[C@@H](CCC(=O)O)C(=O)N[C@@H](CCC(=O)O)C(=O)N[C@@H](Cc1ccc(O)cc1)C(=O)N[C@@H](CC(C)C)C(=O)N[C@@H](CC(=O)O)C(=O)N[C@@H](CC(=O)O)C(=O)N[C@@H](CCC(=O)O)C(=O)N[C@@H](CO)C(=O)O [MH22] | – | – | – | – | – | – | 14.9 ± 0.77 nM | 14.6 ± 2.32 nM | 34.5 ± 4.59 nM
